{"source": "PubChem BioAssay AID1347165", "about": "(National Center for Advancing Translational Sciences (NCATS), 2019)", "note": "Among all 220,000 compounds or so, about 5,700 (2.6%) were called active. The shares of active, inactive and inconclusive entries below differ from those in the screen. Calls follow the shape of the dose curve; as a rule, active = well fitted inhibition curve with a large enough effect; inconclusive = small, poorly fitted or top-dose-only effect; inactive = no such curve, though single readings can be large or run the other way. Where the call is inconclusive, the potency comes from a doubtful curve fit. Potency is read from the fitted curve at half-maximal effect; tags tell the direction and shape of the fitted curve."}
{"molecular_target": "Lysine-specific demethylase 5B (Homo sapiens) (UniProt Q9UGL1)", "sequence (Q9UGL1 whole entry, looked up)": "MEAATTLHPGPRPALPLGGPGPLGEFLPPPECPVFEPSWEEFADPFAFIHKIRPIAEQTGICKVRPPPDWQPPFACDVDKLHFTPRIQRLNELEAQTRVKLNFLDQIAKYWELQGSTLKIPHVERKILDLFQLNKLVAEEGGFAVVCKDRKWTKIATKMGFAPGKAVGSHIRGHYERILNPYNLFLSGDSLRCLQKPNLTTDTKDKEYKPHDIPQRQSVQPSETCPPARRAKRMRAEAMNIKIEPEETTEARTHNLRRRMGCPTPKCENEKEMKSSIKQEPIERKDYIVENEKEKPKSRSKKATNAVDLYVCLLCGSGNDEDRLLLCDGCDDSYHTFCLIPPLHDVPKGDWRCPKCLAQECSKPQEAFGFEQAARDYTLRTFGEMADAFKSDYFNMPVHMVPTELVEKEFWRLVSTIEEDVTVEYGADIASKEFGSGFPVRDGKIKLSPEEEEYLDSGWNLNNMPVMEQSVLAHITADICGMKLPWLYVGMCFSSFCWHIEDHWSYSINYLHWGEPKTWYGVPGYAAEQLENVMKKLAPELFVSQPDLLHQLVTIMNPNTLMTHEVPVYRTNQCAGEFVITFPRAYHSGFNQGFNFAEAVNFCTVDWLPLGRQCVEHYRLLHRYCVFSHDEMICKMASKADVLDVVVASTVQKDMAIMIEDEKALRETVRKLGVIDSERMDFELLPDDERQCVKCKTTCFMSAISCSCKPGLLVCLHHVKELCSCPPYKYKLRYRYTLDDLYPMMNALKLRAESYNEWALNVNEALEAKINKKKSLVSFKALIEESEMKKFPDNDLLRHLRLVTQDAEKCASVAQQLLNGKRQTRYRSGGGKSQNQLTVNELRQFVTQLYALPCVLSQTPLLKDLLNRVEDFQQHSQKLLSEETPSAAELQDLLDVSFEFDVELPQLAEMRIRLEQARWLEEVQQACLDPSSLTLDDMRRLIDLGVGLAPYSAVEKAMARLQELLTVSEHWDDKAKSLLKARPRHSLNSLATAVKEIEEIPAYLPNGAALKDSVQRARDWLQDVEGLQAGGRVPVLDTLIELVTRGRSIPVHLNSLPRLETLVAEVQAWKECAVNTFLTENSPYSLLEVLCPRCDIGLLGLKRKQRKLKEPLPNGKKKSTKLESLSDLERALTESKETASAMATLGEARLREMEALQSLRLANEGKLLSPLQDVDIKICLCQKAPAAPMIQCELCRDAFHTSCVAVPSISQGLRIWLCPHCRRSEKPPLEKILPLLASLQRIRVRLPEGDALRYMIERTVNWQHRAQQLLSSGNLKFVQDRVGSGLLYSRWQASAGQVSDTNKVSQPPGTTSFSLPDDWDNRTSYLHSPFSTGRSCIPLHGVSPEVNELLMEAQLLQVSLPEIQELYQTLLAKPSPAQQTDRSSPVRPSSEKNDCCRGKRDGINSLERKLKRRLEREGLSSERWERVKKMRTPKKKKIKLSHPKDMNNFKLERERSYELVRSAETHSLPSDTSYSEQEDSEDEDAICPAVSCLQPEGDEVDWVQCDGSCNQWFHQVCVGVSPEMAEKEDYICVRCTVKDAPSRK", "assay": "Primary screen for KDM5B Histone Demethylases FDH-coupled qHTS; also: nearly all actives have a fitted effect of over 70% in size; as to activity change, negative = inhibition: 0% is about no effect", "details": "FDH-coupled NADH fluorescence (FDH is formaldehyde dehydrogenase); activity change, negative = inhibition: at 57.7 µM (top of the series) unless noted", "outline": "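Inhibition is measured as reduced NADH fluorescence generation from FDH coupling to formaldehyde release. Truncated KDM5BΔAP at 200 nM final acts on H3K4me3 peptide (12.5 µM in substrate mix) in pH 7.5 HEPES buffer with Tween-20, 30 min, room temperature.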"}
{"compound": "Oc1cccc(Nc2ncnc3sc4c(c23)CCCC4)c1", "Potency": "inconclusive: 31.6 µM [inhibitor, partial curve, poor fit]"}
{"compound": "CN(C)C(=O)c1nc(-c2cccc(C(F)(F)F)c2)c2ccccn12", "Potency": "active: 35.5 µM"}
{"compound": "CCOC(=O)c1cc(-c2ccccc2)n(CCCC(=O)Nc2ccc(C)cc2C)c1C", "activity change, negative = inhibition": "inconclusive: -31.5% [inhibitor]"}
{"compound": "COc1ccc(-c2cc(C(=O)Oc3ccc(C)c(C)c3)c3ccccc3n2)cc1", "Potency": "inconclusive: 28.2 µM [inhibitor, partial curve, poor fit]"}
{"compound": "Cc1cccn2c(=O)c3cc(C(=O)NCc4ccccc4Cl)sc3nc12", "Potency": "inconclusive: 35.5 µM [inhibitor, single point]"}
{"compound": "Cc1ccccc1CNC(=O)Cn1ccc2c(C)nn(C)c2c1=O", "activity change, negative = inhibition": "inactive: 8.32%"}
{"compound": "CC(NC(=O)Cn1c(-c2cccs2)cc2cc(F)ccc21)c1ccccc1", "note": "(configuration not stated)", "Potency": "inconclusive: 35.5 µM [inhibitor, partial curve, poor fit]"}
{"compound": "Cc1ccc2c(=O)c(-c3nc(-c4cccc(F)c4)no3)cn(CC(=O)NCc3ccco3)c2n1", "Potency": "inconclusive: 39.8 µM [inhibitor, single point]"}
{"compound": "N#CC(/C(=N/S(=O)(=O)c1ccccc1)c1ccccc1)c1nc2ccccc2s1", "note": "(configuration not stated)", "activity change, negative = inhibition": "inactive: 11.8%"}
{"compound": "CC1(c2ccccc2)N(Cc2ccccc2)C(=O)OC12CCN(c1cccnc1)CC2", "note": "(configuration not stated)", "Potency": "inconclusive: 56.2 µM [inhibitor, single point]"}
{"compound": "CC(NC(=O)c1cccs1)c1ccc(Br)cc1", "note": "(configuration not stated)", "Potency": "inconclusive: 1.78 µM [inhibitor, partial curve, poor fit]"}
{"compound": "CCCCNC(=O)c1cc(-c2ccc(OC)cc2OC)nc2ccccc12", "Potency": "inconclusive: 31.6 µM [inhibitor, single point]"}
{"compound": "CC(OC(=O)/C=C/c1cccc2ccccc12)C(=O)NC(N)=O", "note": "(configuration not stated)", "Potency": "inconclusive: 35.5 µM [inhibitor, partial curve, poor fit]"}
{"compound": "Nc1ccc(C(=O)OC2CCCC2)cc1", "activity change, negative = inhibition": "inactive: -15.6%"}
{"compound": "CC(C)Cn1c(SCc2noc(-c3ccccc3Cl)n2)nnc1N1CCOCC1", "activity change, negative = inhibition": "inactive: -7.69%"}
{"compound": "CN1CCN([C@H]2CCN(CCCc3ccccc3)C[C@H]2CCC(=O)O)CC1", "Potency": "inconclusive: 35.5 µM [inhibitor, partial curve, poor fit]"}
{"compound": "Cc1ccc(C(=O)CCC(=O)CCC(=O)O)s1", "activity change, negative = inhibition": "inactive: 32.9%"}
{"compound": "CCc1ccc(NC(=O)CSc2nc(=O)n(Cc3ccco3)c3c2CCC3)cc1", "Potency": "inconclusive: 17.8 µM [inhibitor, single point]"}
{"compound": "Cc1nc(C)c(C(=O)N2CCC(Oc3ccccc3-c3nc(-c4ccccc4)no3)C2)s1", "note": "(configuration not stated)", "Potency": "inconclusive: 10 µM [inhibitor, partial curve, poor fit]"}
{"compound": "COc1ccc(Cn2nc(-c3ccc(F)cc3OC)ccc2=O)cc1", "activity change, negative = inhibition": "inactive: 15.5%"}
{"compound": "CCN1CCC(NC(=O)CCc2ncc(-c3ccc(F)cc3)o2)CC1", "activity change, negative = inhibition": "inactive: -1.49%"}
{"compound": "COc1cccc(-n2cnnc2SCc2csc(CC(=O)Nc3ccc(C)cc3)n2)c1", "activity change, negative = inhibition": "inactive: 2.96%"}
{"compound": "Cc1c(CCC(=O)O)c(=O)oc2cc(OCc3cccc(F)c3)ccc12", "Potency": "inconclusive: 25.1 µM [inhibitor, partial curve, poor fit]"}
{"compound": "COc1ccc(-c2nc3c(c(-c4ccccc4)n2)CN(C(C)=O)CC3)cc1", "Potency": "active: 28.2 µM"}
{"compound": "O[C@H]1[C@H](NCC2CCCCC2)[C@H]2CO[C@H](O2)[C@@H]1N1CCC(Cc2ccccc2)CC1", "activity change, negative = inhibition": "inactive: -7.96% [at 86.2 µM]"}
{"compound": "CC(C)(C)c1ccc(Oc2ccc(N)cn2)cc1", "Potency": "inconclusive: 25.1 µM [inhibitor, single point]"}
{"compound": "Nc1nccnc1C(=O)NCCC(c1ccccc1)c1ccccc1", "Potency": "inconclusive: 31.6 µM [inhibitor, partial curve, poor fit]"}
{"compound": "CCc1ccc(NC(=O)CNC(=O)c2ccc(OC)cc2)cc1", "activity change, negative = inhibition": "inactive: -4.4%"}
{"compound": "CC(=O)c1ccc(N2CCN(C3C(=O)c4ccccc4N3C(C)=O)CC2)cc1", "note": "(configuration not stated)", "Potency": "inconclusive: 17.8 µM [inhibitor, partial curve, poor fit]"}
{"compound": "O=S(=O)(c1ccc(Br)cc1)c1nnn2c1nc(NCc1cccs1)c1sccc12", "Potency": "inconclusive: 2.24 µM [inhibitor, partial curve, poor fit]"}
{"compound": "COc1ccc(-c2cc(C(=O)NCCc3ccccc3)c3cc(C(C)C)ccc3n2)cc1", "Potency": "inconclusive: 10 µM [inhibitor, partial curve, poor fit]"}
{"compound": "CCCN(Cc1nccn1C)C(=O)CC1C(=O)NCCN1CC1CCCCC1", "note": "(configuration not stated)", "Potency": "inconclusive: 12.6 µM [inhibitor, partial curve, poor fit]"}
{"compound": "CCOC(=O)C(C)Oc1ccc2c(C)c(Cc3ccccc3)c(=O)oc2c1", "note": "(configuration not stated)", "Potency": "inconclusive: 31.6 µM [inhibitor, partial curve, poor fit]"}
{"compound": "CC1CCC2(CC1)NC(=O)N(CC(=O)Nc1ccccc1C(C)C)C2=O", "note": "(configuration not stated)", "activity change, negative = inhibition": "inactive: 15.6%"}
{"compound": "c1ccc2c(Cc3nnc([C@H]4CCN(C5CCCCC5)C4)o3)c[nH]c2c1", "Potency": "inconclusive: 39.8 µM [inhibitor, single point]"}
{"compound": "COc1ccc(-n2c(=O)c3ccc(C(=O)NCc4ccc(C)cc4)cc3n(CC(=O)Nc3ccc(C)cc3)c2=O)cc1", "Potency": "inconclusive: 31.6 µM [inhibitor, partial curve, poor fit]"}
{"compound": "CCc1nc2c(c(-c3ccc(Cl)cc3)n1)CCN(Cc1ccns1)CC2", "Potency": "inconclusive: 25.1 µM [inhibitor, single point]"}
{"compound": "Cc1cc(=O)oc2cc(OS(=O)(=O)c3cccc(Cl)c3)ccc12", "Potency": "inconclusive: 28.2 µM [inhibitor, partial curve, poor fit]"}
{"compound": "Cc1ccc(Cn2c(C(=O)O)c(CNCCc3ccco3)c3ccc(C)cc32)cc1", "Potency": "inconclusive: 28.2 µM [inhibitor, partial curve, poor fit]"}
{"compound": "Fc1ccc(CN2CCNc3cnc(-c4ccccc4)cc3C2)cc1F", "Potency": "active: 35.5 µM"}
{"compound": "O=C(NCCNC(=O)c1nc2ccccc2c(=O)[nH]1)c1ccc2ccccc2c1", "activity change, negative = inhibition": "inactive: 11.5%"}
{"compound": "CN(C)CCNC(=O)C(C)(C)Oc1nn(CCOc2ccccc2)c2ccccc12", "Potency": "inconclusive: 31.6 µM [inhibitor, single point]"}
{"compound": "O=C1[C@H]2CN(Cc3ccccc3F)C[C@H]2C(=O)N1CCN1CCc2ccccc2C1", "Potency": "inconclusive: 15.8 µM [inhibitor, partial curve, poor fit]"}
{"compound": "COc1ccc2nc([C@H]3CCN(C4CCCCC4)C3)[nH]c2c1", "Potency": "active: 28.2 µM"}
{"compound": "COc1cc(-c2nc3ccc(C)cn3c2Nc2ccc(Cl)cc2)ccc1O", "Potency": "inconclusive: 35.5 µM [inhibitor, partial curve, poor fit]"}
{"compound": "CCn1c(=O)c2cc(C(=O)NCCC(C)C)sc2c2ccccc21", "Potency": "inconclusive: 35.5 µM [inhibitor, partial curve, poor fit]"}
{"compound": "c1ccc2c(c1)CCN2C1CN(CC2CCCCC2)C1", "Potency": "inconclusive: 50.1 µM [inhibitor, partial curve, poor fit]"}
{"compound": "Cc1c(Cl)cccc1NC(=O)CN1C(=O)CCn2nc(-c3cccn3C)cc21", "Potency": "inconclusive: 28.2 µM [inhibitor, partial curve, poor fit]"}
{"compound": "COCCN(CCOC)C(=O)c1cc2c(=O)n3ccccc3nc2n1C", "Potency": "inconclusive: 28.2 µM [inhibitor, partial curve, poor fit]"}
{"compound": "CCOC(=O)C(Cc1c[nH]c2ccccc12)NC(=O)COc1ccc(Cl)cc1", "note": "(configuration not stated)", "Potency": "inconclusive: 31.6 µM [inhibitor, single point]"}
{"compound": "CCCCN1C(=O)C(=O)N(Cc2cc(=O)oc3cc(C)ccc23)C1=O", "activity change, negative = inhibition": "inactive: -6.89%"}
{"compound": "CCc1ccc(N2CC(c3noc(-c4ccc5ncccc5c4)n3)CC2=O)cc1", "note": "(configuration not stated)", "Potency": "active: 31.6 µM"}
{"compound": "CC(C)Oc1ccc(CNC(=O)CCCn2c(=O)c3cccn3c3cccnc32)cc1", "Potency": "inconclusive: 31.6 µM [inhibitor, partial curve, poor fit]"}
{"compound": "COc1ccccc1Nc1cnc2ccc(N(C)Cc3cccnc3)nn12", "Potency": "inconclusive: 31.6 µM [inhibitor, single point]"}
{"compound": "COCCN1CCOc2nc(-c3cc(F)ccc3OC)ncc2C1=O", "Potency": "active: 31.6 µM"}
{"compound": "CC(=O)N/C(N)=N/c1nc(=O)c2ccccc2s1", "Potency": "inconclusive: 28.2 µM [inhibitor, single point]"}
{"compound": "O=C(NCc1ccc2c(c1)CCN2C(=O)c1ccncc1)c1ccc(Cl)cc1", "activity change, negative = inhibition": "inactive: -22.9%"}
{"compound": "CN(C)C[C@@H]1CN(c2ccncn2)C[C@H]1NC(=O)c1ccsc1", "activity change, negative = inhibition": "inactive: 3.56%"}
{"compound": "COc1ccc(-c2cc(C(=O)N3CCOCC3)c3c(C4CCNC4)nn(C)c3n2)cc1", "note": "(configuration not stated)", "Potency": "active: 79.4 µM"}
{"compound": "COc1ccc(NC2CCCN(C(=O)CCCS(N)(=O)=O)C2)cc1", "note": "(configuration not stated)", "Potency": "inconclusive: 14.1 µM [inhibitor, partial curve, poor fit]"}
{"compound": "CC(=O)c1ccc(N2CCN(C(=O)Nc3cccc(F)c3)CC2)cc1", "Potency": "inconclusive: 1.41 µM [inhibitor, full curve, poor fit]"}
{"compound": "CCc1ccc(C2CC(C(=O)NCc3ccccc3)CN(C(=O)c3ccoc3)C2)cc1", "note": "(configuration not stated)", "Potency": "inconclusive: 25.1 µM [inhibitor, single point]"}
{"compound": "C=CCSc1nc(-c2cccs2)cc(C(F)(F)F)c1C#N", "Potency": "inconclusive: 10 µM [inhibitor, partial curve, poor fit]"}
{"compound": "COCCN(CC1CCN(Cc2ccccc2OC)CC1)C(=O)c1n[nH]c2c1CCC2", "activity change, negative = inhibition": "inactive: 15%"}
{"compound": "Cc1ccc(-c2cc3ccccn3c2)cc1C", "Potency": "inconclusive: 14.1 µM [inhibitor, partial curve, poor fit]"}
{"compound": "CCN(CC)S(=O)(=O)c1ccc(Oc2ccccc2)c(NC(=O)c2cnccn2)c1", "activity change, negative = inhibition": "inactive: -3.21%"}
{"compound": "CCOC(=O)N1CCN(c2nc(N(c3ccccc3)c3ccccc3)nc(-n3ccnc3)n2)CC1", "Potency": "inconclusive: 31.6 µM [inhibitor, single point]"}
